Assay results reported in PubChem BioAssay AID1347071 (National Center for Advancing Translational Sciences (NCATS), 2019).
The whole screen tested about 410,000 compounds, of which about 260 (0.063%) were called active. The shares of active, inactive and inconclusive entries below differ from those in the screen. The call rests on the fitted dose curve; in most records, active means well fitted activation curve with a large enough effect; inconclusive means small, poorly fitted or top-dose-only effect; inactive means no such curve, though single readings can be large or run the other way. No potency is given beside an inconclusive call; the fits are too rough.

Experiment: qHTS for compounds that reverse cellular toxicity of Amyloid beta (A-beta) peptide in yeast: Primary Screen; further: nearly all actives have a fitted effect of over 55% in size
Details: yeast expressing A-beta42, growth rescue, OD600, 48 h; growth rescue: at 46.1 µM (top of the series), 0% DMSO, 100% iron-clioquinol control
In short: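 Yeast growth medium received pinned compounds, then yeast cells expressing toxic A-beta were added; plates incubated at 30 C for 48 hr. Growth read as absorbance at 600 nm, normalized to DMSO and equimolar FeCl3 plus clioquinol controls.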
Potency means the concentration at half of the fitted maximal effect; tags describe the fitted curve by direction and shape.

Row | Compound | growth rescue | Potency
1 | COc1ccc(S(=O)(=O)Nc2ccc3oc(C)c(C(=O)O)c3c2)cc1 | inconclusive: 16.9% [activator] | –
2 | C=CCc1c(C)nc(-c2ccccc2)nc1Nc1ccccc1O | – | inactive
3 | CCN(C(=O)Cn1nc(Cc2ccncc2)c2ccccc2c1=O)c1cccc(Cl)c1 | – | inactive
4 | COc1ccc(CCNC(=O)CN2C(=O)COc3ccc(C)cc32)cc1OC | – | inactive
5 | N#Cc1ccc(OCC(=O)Nc2nc(-c3ccccn3)cs2)cc1 | – | inconclusive [activator, single point]
6 | CCOC(=O)Cn1c(=O)n(CC2CCCO2)c2nc(-c3ccc(OCC)cc3)nc(C(N)=O)c21 (stereo unspecified) | – | inactive
7 | COc1cc(N2C(=O)CSC23C(=O)N(Cc2cccc(F)c2)c2ccccc23)cc(OC)c1OC (stereo unspecified) | – | inactive
8 | CN(C)S(=O)(=O)Oc1ccsc1C(=O)Nc1ccc(C(F)(F)F)cc1 | – | inconclusive [activator, partial curve]
9 | CCn1c(-c2csc3c2CCCC3)n[nH]c1=S | – | inconclusive [activator, single point]
10 | CC(O)(c1ccc(F)c(F)c1)c1nc(-c2cccc3cccnc23)cs1 (stereo unspecified) | – | inconclusive [activator, single point]
11 | Cc1nn(Cc2ccc(C(=O)Nc3ccccc3C(F)(F)F)o2)c(C)c1Br | – | inactive
12 | Cc1ccc2c(c1)C(c1ccccc1)N(C(=O)c1ccc(S(=O)(=O)N3CCCC3)cc1)CC(=O)N2 (stereo unspecified) | – | inactive
13 | CC(C)C(=O)Nc1cccc(NC(=S)NC(=O)c2ccc(Cl)cc2)c1 | – | inconclusive [activator, partial curve]
14 | CCOC(=O)Cc1nnc(NC(=O)COc2ccc(OC)cc2)s1 | – | inconclusive [activator, full curve, poor fit]
15 | CCOc1ccccc1NC(=O)NCc1noc2ccc(C)cc12 | – | inconclusive [activator, partial curve, poor fit]
16 | COc1ccc(/C=N/NC(N)=S)cc1 | – | inconclusive [activator, single point]
17 | COc1cc([N+](=O)[O-])cc2sc(NC(=O)c3c(F)cccc3F)nc12 | – | inconclusive [activator, single point]
18 | CN(C)NC(=S)Nc1cccc(Cl)c1 | – | inconclusive [activator, partial curve, poor fit]
19 | O=S(=O)(Cc1cc(Sc2ccc(Cl)cc2)nc(-c2ccccc2)n1)c1ccccc1 | – | inactive
20 | CNc1ccccc1C(C)(C)c1cc(-c2cccc([N+](=O)[O-])c2)no1 | – | active: 11.2 µM
21 | NC(=S)N/N=C1\CCOc2ccc(F)cc21 | – | inconclusive [activator, single point]
22 | O=S(=O)(O)c1ccc(NN=Cc2ccccc2O)cc1 | – | inconclusive [activator, partial curve]
23 | COc1ccc(NC(=O)c2ccco2)cc1NC(=O)c1cccc(OC(C)C)c1 | – | inactive
24 | Cc1ccc2c(c1)c1c3n2CCN(C=O)C3CCC1 (stereo unspecified) | – | inconclusive [activator, partial curve, poor fit]

Row | Compound | growth rescue | Potency
25 | O=C(Cn1cnc2c(nnn2Cc2ccc(Cl)cc2)c1=O)OCc1ccccc1 | – | inconclusive [activator, partial curve, poor fit]
26 | CCCn1c2ccccc2c2cnn(CC(=O)NCCc3ccc(OCC)c(OCC)c3)c(=O)c21 | – | inactive
27 | Cc1nnc(SCC(=O)Nc2cc(C(C)(C)C)nn2-c2ccccc2)s1 | – | inactive
28 | CCC(C)Nc1nc(C)nc2c1oc1ccccc12 (stereo unspecified) | – | inactive
29 | CC(C)CCN(C(=S)Nc1cccc(C(F)(F)F)c1)C(C)c1ccccn1 (stereo unspecified) | – | inconclusive [activator, single point]
30 | COc1ccccc1C1CC(c2ccccc2)=NN1C(=S)Nc1ccccc1 (stereo unspecified) | – | inconclusive [activator, full curve]
31 | CCOc1ccc(-c2ccc(C3=CC(=O)C[C@H](c4ccc(F)cc4)C3)cc2)cc1 | – | inactive
32 | O=C(N[C@H](C(=O)O)c1ccccc1)C1CCC(Cn2cnc3ccccc3c2=O)CC1 (stereo partly specified) | – | inconclusive [activator, partial curve, poor fit]
33 | Cc1cccc(N2CCN(C(=O)n3ccnc3)CC2)c1C | – | inconclusive [activator, partial curve, poor fit]
34 | O=C(NC1CCCC1)C(c1ccccc1)N(Cc1ccco1)C(=O)Cc1cccs1 (stereo unspecified) | – | inconclusive [activator, partial curve, poor fit]
35 | C/C(=N\NC(=O)C1COc2ccccc2O1)c1ccccn1 (stereo unspecified) | – | inconclusive [activator, partial curve, poor fit]
36 | CN(Cc1nc(-c2ccc(Cl)cc2)no1)C(=O)c1ccco1 | – | inactive
37 | C/C(N)=C(/C#N)C(=O)CSc1nc2ccccc2c(=O)n1Cc1ccc(F)cc1 | – | active: 12.6 µM
38 | CCOC(=O)C1(Cc2cccc(OC)c2)CCN(CCO)CC1 | – | inconclusive [activator, partial curve, poor fit]
39 | O=C(NCCC1=CCCCC1)C1CC(=O)N(C2CCCCCC2)C1 (stereo unspecified) | – | inconclusive [activator, full curve, poor fit]
40 | N#C/C(=C\c1ccccn1)c1nc2ccccc2s1 | – | inconclusive [activator, partial curve]
41 | CCc1ccc(NC(=O)C2CCN(C(=O)N3CCOc4ccccc43)CC2)cc1 | – | inconclusive [activator, single point]
42 | CCC(Sc1nnnn1-c1ccccc1)C(=O)Nc1nc2ccccc2s1 (stereo unspecified) | – | inconclusive [activator, partial curve]
43 | O=[N+]([O-])c1ccc(C(O)CSC(=S)N2CCCCC2)cc1 (stereo unspecified) | – | inconclusive [activator, partial curve, poor fit]
44 | N/C(=N\OC(=O)c1ccncc1)c1cccc([N+](=O)[O-])c1 | – | inactive
45 | Cc1ccc(CN(Cc2cccnc2)C(=S)Nc2cccc(Cl)c2C)cc1 | – | active: 11.2 µM
46 | O=C(NC(=S)NNC(=O)c1cccs1)c1ccc(Br)o1 | – | inconclusive [activator, full curve, poor fit]
47 | OC[C@@H]1CN(Cc2ccc(F)cc2)C[C@H](n2cnc3c(N4CCCC4)ncnc32)O1 | – | inactive
48 | O=C(OCC1OC2C(Oc3nc(=O)ccn32)C1O)c1ccccc1 (stereo unspecified) | – | inconclusive [activator, full curve]

Row | Compound | growth rescue | Potency
49 | CC(NC(=S)NCc1ccc(F)cc1)C12CC3CC(CC(C3)C1)C2 (stereo unspecified) | – | active: 5.62 µM
50 | CC(C)=CCN1CCN(Cc2c[nH]c3ccccc23)CC1CCO (stereo unspecified) | – | inconclusive [activator, single point]
51 | COc1ccc(CN(C(=O)/C=C/C(=O)c2ccc(OC)cc2O)C(C(=O)NC2CCCCC2)c2ccncc2)cc1 (stereo unspecified) | – | inactive
52 | C(#CCN1CCOCC1)COCCCOC(c1ccccc1)c1ccccc1 | inconclusive: -86.8% [activator] | –
53 | Cc1ccc(N2C(=O)CC(Sc3ccccc3C(=O)O)C2=O)c([N+](=O)[O-])c1 (stereo unspecified) | – | inconclusive [activator, full curve, poor fit]
54 | NC(=O)COC(=O)c1c2c(nc3ccccc13)CCC2 | – | inconclusive [activator, single point]
55 | CCOc1ccc2nc(N3CCCC(C(=O)NCCCN4C(C)CCCC4C)C3)sc2c1 (stereo unspecified) | – | inconclusive [activator, single point]
56 | Cc1ccc(C2CC(c3ccccc3)=NN2c2ccc(S(N)(=O)=O)cc2)cc1 (stereo unspecified) | – | inactive
57 | COc1ccc(C(CC(=O)O)c2ccc3c(c2)OCO3)cc1 (stereo unspecified) | – | inconclusive [activator, partial curve]
58 | CCC(=O)N1c2nc(-c3ccco3)nn2C2(CCCCC2)[C@@H]2CCCC[C@@H]21 | – | inactive
59 | CCC1CN(C(=O)N2CCC(C(=O)NCCc3ccc(Cl)cc3)CC2)c2ccccc2O1 (stereo unspecified) | – | inconclusive [activator, single point]
60 | Cc1ccc(C)c(S(=O)(=O)N2CCN(Cc3ccc(O)c4ncccc34)CC2)c1 | – | inconclusive [activator, single point]
61 | C=CCSc1nnc(CCCCCN2C(=O)c3cccc4cccc(c34)C2=O)o1 | – | inactive
62 | Cc1nn(CCCC(=O)Nc2ccc(Br)cc2F)c(C)c1[N+](=O)[O-] | – | inconclusive [activator, partial curve]
63 | CCn1cc(C(=O)OCC(=O)Nc2cccc(Cl)c2Cl)c(=O)c2ccc(C)nc21 | – | inconclusive [activator, single point]
64 | COc1cccc(NC(=O)Nc2ccc(Br)cn2)c1 | – | inconclusive [activator, single point]
65 | CC1(C)CCC(=O)N2CC[C@H]3C[C@H](OC(=O)Nc4ccccc4)C[C@@H]1[C@H]32 | – | inconclusive [activator, full curve]
66 | O=C(O)c1ccccc1-c1ccccc1C(=O)Nc1ccccc1 | – | inconclusive [activator, single point]
67 | CCCCN(CCCC)S(=O)(=O)c1ccc(NC(=O)c2cccs2)cc1 | – | inactive
68 | CC(C)Cc1ccc(S(=O)(=O)N2CCN(c3ccccn3)CC2)cc1 | – | inactive
69 | CCCc1ccc(C(C)NC(=S)NC2CCCCC2)cc1 (stereo unspecified) | – | active: 11.2 µM
70 | Cc1ccc(NC(=O)CNC(=O)c2cccs2)cc1S(=O)(=O)Nc1ccc(Cl)cc1 | inconclusive: -11.2% [activator] | –
71 | CCC(C(=O)Nc1nc(C)c(C(=O)OC)s1)c1ccccc1 (stereo unspecified) | – | inconclusive [activator, single point]
